Assay [1] concerns the target T1, Human IL-2Rβ/γ (intermediate affinity IL-2 receptor) (human, UniProt P14784 27-551; P31785 23-369).
T1 construct: whole, on cells; also called IL-2Rβ/γc; IL-2Rβ (CD122) and γ (CD132)
T1 sequence (looked up) 1: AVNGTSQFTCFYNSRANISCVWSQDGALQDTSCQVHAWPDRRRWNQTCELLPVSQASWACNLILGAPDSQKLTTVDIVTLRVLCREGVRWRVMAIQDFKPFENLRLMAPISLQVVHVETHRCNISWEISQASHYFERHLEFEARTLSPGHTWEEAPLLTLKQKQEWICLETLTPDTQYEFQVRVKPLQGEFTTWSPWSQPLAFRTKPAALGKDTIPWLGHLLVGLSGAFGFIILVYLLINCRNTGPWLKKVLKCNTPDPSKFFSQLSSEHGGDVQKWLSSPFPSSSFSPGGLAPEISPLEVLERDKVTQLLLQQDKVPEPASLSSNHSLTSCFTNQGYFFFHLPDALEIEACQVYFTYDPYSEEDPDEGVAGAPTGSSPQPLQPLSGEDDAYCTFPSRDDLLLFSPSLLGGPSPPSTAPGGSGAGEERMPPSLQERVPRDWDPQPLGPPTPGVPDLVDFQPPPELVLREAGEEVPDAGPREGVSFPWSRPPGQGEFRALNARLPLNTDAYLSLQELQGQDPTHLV
T1 sequence (looked up) 2: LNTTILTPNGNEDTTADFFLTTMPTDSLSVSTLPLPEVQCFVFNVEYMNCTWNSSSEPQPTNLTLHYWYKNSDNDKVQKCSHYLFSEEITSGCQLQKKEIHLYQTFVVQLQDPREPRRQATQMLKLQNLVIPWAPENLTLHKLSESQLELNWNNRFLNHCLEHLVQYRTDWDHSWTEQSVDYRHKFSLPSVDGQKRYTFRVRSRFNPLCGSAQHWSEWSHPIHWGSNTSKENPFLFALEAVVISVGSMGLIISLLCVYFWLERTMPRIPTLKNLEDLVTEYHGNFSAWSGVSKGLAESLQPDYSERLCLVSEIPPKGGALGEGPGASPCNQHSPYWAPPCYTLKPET
As to the kind of experiment: FACS, HH cells. As for the experimental part: (§1) Human cutaneous T cell lymphoma HH cells, malignant non-Hodgkin's lymphoma NK92 cells and cutaneous T cell lymphoma MJ20 cells were used for binding assay. They both constitutively express IL-2Rβ (CD122) and […] (CD132), and NK92 and MJ20 also expresses IL-2Rα (CD25). HH, NK92 and MJ20 cells were cultured following ATCC guidance, then transferred to a 96-plate for binding analysis. Cells were incubated with IL-2/Fc fusion proteins at the indicated concentrations for 30 min at 4° C. to avoid internalization. Binding was detected by 2nd antibody of PE-anti-human Fc at 4° C. for another 30 min. The median fluorescence intensity (MFI) on HH and NK92 cells was measured using FACS.

The target in assay [2] is T2, Human IL-2Rα/β/γ complex (high affinity IL-2 receptor) (human, UniProt P01589 22-272; P14784 27-551; P31785 23-369).
T2 construct: whole, on cells
T2 sequence (looked up) 1: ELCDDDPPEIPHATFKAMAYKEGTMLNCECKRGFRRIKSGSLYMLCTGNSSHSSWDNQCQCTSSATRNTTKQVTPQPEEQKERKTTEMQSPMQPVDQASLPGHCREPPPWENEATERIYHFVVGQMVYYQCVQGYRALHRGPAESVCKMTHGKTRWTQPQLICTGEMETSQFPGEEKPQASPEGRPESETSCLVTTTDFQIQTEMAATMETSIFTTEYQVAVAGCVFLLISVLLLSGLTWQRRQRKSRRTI
T2 sequence (looked up) 2: T1 sequence (looked up) 1
T2 sequence (looked up) 3: T1 sequence (looked up) 2
As to the kind of experiment: FACS, NK92 cells. As to the method: as §1

Assay [3] addresses T1, Human IL-2Rβ/γ (intermediate affinity …). As to the kind of experiment: cell-based or functional assay.
Assay [4] has as its target T2, Human IL-2Rα/β/γ complex (high affinity …). As to the kind of experiment: cell-based or functional assay.
In assay [5] the target is T1, Human IL-2Rβ/γ (intermediate affinity …). As to the kind of experiment: FACS, HH cells; EC50 fold vs T2U0.E44-1. As to the method: as §1
Assay [6] concerns the target T2, Human IL-2Rα/β/γ complex (high affinity …). As to the kind of experiment: FACS, NK92 cells; EC50 fold vs T2U0.E44-1. As for the experimental part:
as §1

For assay [7] the target is unchanged. The experiment in a line: FACS on NK92 cells (IL-2Rα/β/γ), 30 min at 4 °C, PE anti-human Fc, MFI. As to the method: as §1

B1: W3XX115-T2U0.E44-4.uIgG4V1 (Fc fusion)
chain: [no letters for about 150 residues]KYGPPCPPCPAPEFLGGPSVFLFPPKPKDTLMISRTPEVTCVVVDVSQEDPEVQFNWYVDGVEVHNAKTKPREEQFNSTYRVVSVLTVLHQDWLNGKEYKCKVSNKGLPSSIEKTISKAKGQPREPQVYTLPPCQEEMTKNQVSLWCLVKGFYPSDIAVEWESNGQPENNYKTTPPVLDSDGSFFLYSRLTVDKSRWQEGNVFSCSVMHEALHNHYTQKSLSLSLG
heavy: EIQLQQSGPELVKPGASVKVSCKASGYSFTDYNMYWVKQSHGESLEWIGYIDPYNGGTRYNQKFKGKATLTVDKSSSTAFMHLNSLTSEDSAVYYCARNGHWDGAWFAYWGQGTLVTVSAASTKGPSVFPLAPCSRSTSESTAALGCLVKDYFPEPVTVSWNSGALTSGVHTFPAVLQSSGLYSLSSVVTVPSSSLGTKTYTCNVDHKPSNTKVDKRVESKYGPPCPPCPAPEFLGGPSVFLFPPKPKDTLMISRTPEVTCVVVDVSQEDPEVQFNWYVDGVEVHNAKTKPREEQFNSTYRVVSVLTVLHQDWLNGKEYKCKVSNKGLPSSIEKTISKAKGQPREPQVCTLPPSQEEMTKNQVSLSCAVKGFYPSDIAVEWESNGQPENNYKTTPPVLDSDGSFFLVSRLTVDKSRWQEGNVFSCSVMHEALHNHYTQKSLSLSLG
light: DIQMNQSPSSLSASLGDTITITCHASQNINVWLSWYQQKPGNIPKLLIYKASNLHTGVPSRFSGSRSGTGFTLTISSLQPEDIATYYCHQGQSYPFTFGSGTKLEIKRTVAAPSVFIFPPSDEQLKSGTASVVCLLNNFYPREAKVQWKVDNALQSGNSQESVTEQDSKDSTYSLSSTLTLSKADYEKHKVYACEVTHQGLSSPVTKSFNRGEC
notes: IL-2 with C-terminal 2 aa (LT) deleted; E44 format, IgG4
As to B1, in assay [1], a half-maximal response (EC50) required 55.2 nM. In assay [2], this molecule displayed a concentration for a half-maximal effect (EC50) of 7.56 nM. In assay [3], the “Potency in human CD8+ T EC50” value was determined as 18.4 nM and the “Potency reduction (CD8+ T)” value was 1.93 fold. Also, in assay [4], the “Potency in human Treg EC50” value was determined as 0.77 nM and the “Potency reduction (Treg)” value is 29.8 fold. For the same molecule, the Affinity reduction in assay [5] stood at 1.78 fold. For the same molecule, the Affinity reduction in assay [6] was 1.37 fold.

B2: W3XX115-T2U0.E44-1.uIgG1V320 (Fc fusion)
chain: [no letters for about 350 residues with a human IgG1 Fc]
heavy: EIQLQQSGPELVKPGASVKVSCKASGYSFTDYNMYWVKQSHGESLEWIGYIDPYNGGTRYNQKFKGKATLTVDKSSSTAFMHLNSLTSEDSAVYYCARNGHWDGAWFAYWGQGTLVTVSAASTKGPSVFPLAPSSKSTSGGTAALGCLVKDYFPEPVTVSWNSGALTSGVHTFPAVLQSSGLYSLSSVVTVPSSSLGTQTYICNVNHKPSNTKVDKRVEPKSCDKTHTCPPCPAPEAAGGPSVFLFPPKPKDTLMISRTPEVTCVVVDVSHEDPEVKFNWYVDGVEVHNAKTKPREEQYNSTYRVVSVLTVLHQDWLNGKEYKCKVSNKALPAPIEKTISKAKGQPREPQVCTLPPSREEMTKNQVSLSCAVKGFYPSDIAVEWESNGQPENNYKTTPPVLDSDGSFFLVSKLTVDKSRWQQGNVFSCSVMHEALHNHYTQKSLSLSPG
light: B1 light
B2: the EC50 in assay [1] stood at 43 nM; in assay [2], 4.9 nM.

B3: W3XX115-T2U0.E44-2.uIgG1V320 (Fc fusion)
chain: [no letters for about 150 residues]GGGGSGGGGSGGGGS[no letters for human IgG1 Fc with changes]
heavy: B2 heavy
light: B1 light
notes: WT IL-2 N-terminal of Fc with (G4S)3 linker; IgG1 Fc with LALA; one Fab arm (E44 format)
On to B3, for which the EC50 in assay [1] turned out to be 33 nM; in assay [2], 4.1 nM.

B4: W3XX115-T2U0.E44-3.uIgG4V1 (Fc fusion)
chain: [no letters for about 150 residues]SKYGPPCPPCPAPEFLGGPSVFLFPPKPKDTLMISRTPEVTCVVVDVSQEDPEVQFNWYVDGVEVHNAKTKPREEQFNSTYRVVSVLTVLHQDWLNGKEYKCKVSNKGLPSSIEKTISKAKGQPREPQVYTLPPCQEEMTKNQVSLWCLVKGFYPSDIAVEWESNGQPENNYKTTPPVLDSDGSFFLYSRLTVDKSRWQEGNVFSCSVMHEALHNHYTQKSLSLSLG
heavy: B1 heavy
light: B1 light
notes: IL-2 with C-terminal 1 aa (T) deleted; E44 format, IgG4
Turning to B4, the EC50 in assay [1] was determined as 188 nM. The same molecule displayed a 50% effective concentration (EC50) in assay [2] of 6.69 nM. Besides, in assay [3], the “Potency in human CD8+ T EC50” value was determined as 38.1 nM and the “Potency reduction (CD8+ T)” value was 4 fold. In addition, in assay [4], the “Potency in human Treg EC50” value was 0.34 nM and the “Potency reduction (Treg)” value was found to be 13.2 fold. This molecule yielded an Affinity reduction in assay [5] of 6.05 fold. Moreover, in assay [6], the Affinity reduction was 1.22 fold.

B5: W3XX115-U0T2.F114-1.uIgG1V320 (Fc fusion)
heavy 1: EIQLQQSGPELVKPGASVKVSCKASGYSFTDYNMYWVKQSHGESLEWIGYIDPYNGGTRYNQKFKGKATLTVDKSSSTAFMHLNSLTSEDSAVYYCARNGHWDGAWFAYWGQGTLVTVSAASTKGPSVFPLAPSSKSTSGGTAALGCLVKDYFPEPVTVSWNSGALTSGVHTFPAVLQSSGLYSLSSVVTVPSSSLGTQTYICNVNHKPSNTKVDKRV[no letters for human IgG1 Fc with changes]GGGGSGGGGSGGGGS[no letters for about 150 residues]
heavy 2: B2 heavy
light: B1 light
notes: WT IL-2 on the C-terminus of one heavy chain via (G4S)3 linker; IgG1 Fc with LALA; two Fab arms; also called C-terminal fusion protein (F114)
Molecule B5 registered an EC50 in assay [1] of 48 nM. In assay [7], the binding result was “binds”.

Source of the values: patent US20250000946A1 (WUXI BIOLOGICS IRELAND, published 2025).
